The source of these data is publication PMC4336329 (PLoS ONE, 2015).

Each structure is given as a SMILES string. The whole screen tested about 310,000 compounds, of which about 14,000 (4.5%) showed an effect of 50% or more. The effect is printed as a negative number. The list shows a part of the results.
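Note: peak tail current of the secondary pulse compared with the same well before compound.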

The test deals with human ether-à-go-go-related gene (hERG) potassium channel (human, UniProt Q12809). The test can be described thus: primary screen, population patch clamp on CHO cells stably expressing hERG.
Sequence of human ether-à-go-go-related gene (hERG) potassium channel (Q12809 whole entry, looked up): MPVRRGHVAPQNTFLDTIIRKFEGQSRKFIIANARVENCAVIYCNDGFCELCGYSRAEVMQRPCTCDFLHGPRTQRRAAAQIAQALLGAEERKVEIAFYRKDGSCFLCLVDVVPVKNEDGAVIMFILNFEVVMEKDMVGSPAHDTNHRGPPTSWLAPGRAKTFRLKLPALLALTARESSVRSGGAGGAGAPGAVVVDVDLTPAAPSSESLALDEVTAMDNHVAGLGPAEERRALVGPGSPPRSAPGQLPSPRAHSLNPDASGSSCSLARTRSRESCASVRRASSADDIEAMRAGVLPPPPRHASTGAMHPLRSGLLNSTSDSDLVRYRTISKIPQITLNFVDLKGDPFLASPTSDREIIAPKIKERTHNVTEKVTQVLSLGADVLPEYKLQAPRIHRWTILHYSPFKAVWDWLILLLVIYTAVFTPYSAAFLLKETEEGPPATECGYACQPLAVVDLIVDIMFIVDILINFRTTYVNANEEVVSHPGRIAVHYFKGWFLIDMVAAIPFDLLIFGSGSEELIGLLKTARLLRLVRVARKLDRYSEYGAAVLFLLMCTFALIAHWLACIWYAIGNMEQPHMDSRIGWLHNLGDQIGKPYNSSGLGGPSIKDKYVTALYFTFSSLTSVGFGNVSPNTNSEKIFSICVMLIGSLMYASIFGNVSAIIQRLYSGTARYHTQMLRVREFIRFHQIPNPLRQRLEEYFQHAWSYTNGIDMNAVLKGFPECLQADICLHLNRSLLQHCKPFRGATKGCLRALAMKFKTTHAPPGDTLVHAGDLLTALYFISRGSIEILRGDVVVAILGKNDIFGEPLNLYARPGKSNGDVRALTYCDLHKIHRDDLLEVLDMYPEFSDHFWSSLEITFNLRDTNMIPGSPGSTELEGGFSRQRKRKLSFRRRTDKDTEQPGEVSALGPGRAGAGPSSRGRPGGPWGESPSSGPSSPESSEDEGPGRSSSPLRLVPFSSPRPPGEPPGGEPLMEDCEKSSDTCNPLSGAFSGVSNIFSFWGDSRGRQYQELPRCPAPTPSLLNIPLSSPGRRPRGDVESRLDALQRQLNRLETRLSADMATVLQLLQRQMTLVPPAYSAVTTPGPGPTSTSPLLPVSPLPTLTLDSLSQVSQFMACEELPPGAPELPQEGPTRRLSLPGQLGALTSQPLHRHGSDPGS
On to `O=C(COC(=O)c1ccc(S(=O)(=O)NCc2ccco2)cc1)Nc1ccccc1OC(F)F`, for which the “hERG current change (%, negative = inhibition) at 10uM” value is -1.51%. As for `CC(=O)OCC(=O)N1N=C(c2ccc3ccccc3c2)CC1c1ccccc1` (stereo not drawn), the “hERG current change (%, negative = inhibition) at 10uM” value is on record as 3.79%. To `CC(=O)n1cc(-c2ccncc2)c2ccccc21.Cl` belongs -11.7%; to `CCO[C@@H]1OC(C(=O)NC2CC2)=C[C@H](c2ccc(Br)cc2)[C@H]1CCCO`, -20.2%. To `Cc1ccc(CC2CC(=O)N(c3nc(C)cc(C)n3)C2=O)cc1` (stereo not drawn) belongs -12.1%; to `COc1ccc(N2CCN(CC(O)c3c[nH]c4ccc(OC)cc34)CC2C)cc1` (stereo not drawn), -68.1%.

`Br.N=c1n(CC(=O)c2ccc([N+](=O)[O-])cc2)c2ccccc2n1Cc1ccccc1Cl`: the “hERG current change (%, negative = inhibition) at 10uM” value is on record as -23.6%. The result for `CC1(c2ccc(OC(F)F)cc2)NC(=O)N(CC(=O)Nc2cccc(F)c2)C1=O` (stereo not drawn) reads 2.79%; that for `Cc1ccc(NC(=O)COC(=O)C2CSC3(C)CCC(=O)N23)c(C)c1` (stereo not drawn), -3.36%. In the case of `N[C@@H](C(=O)N[C@@H]1C(=O)N2C(C(=O)O)=C(Cl)CS[C@H]12)c1ccccc1`, the “hERG current change (%, negative = inhibition) at 10uM” value came out at 19.2%. Turning to `C=CCn1c(=NC(=O)C2COc3ccccc3O2)sc2cc(S(N)(=O)=O)ccc21` (stereo not drawn), the “hERG current change (%, negative = inhibition) at 10uM” value was determined as 12.4%. The result for `CCOc1ccc(CN(C)C(=O)[C@H](C)NC(=O)c2ccco2)cc1OC` reads 14.3%; that for `CCCN(C(=O)CSc1nc2c(cnn2-c2ccccc2)c(=O)[nH]1)C1CCS(=O)(=O)C1` (stereo not drawn), 1.97%. In the case of `Cn1c(O)c(C(=N)COc2ccccc2)c(=O)n(C)c1=O`, the “hERG current change (%, negative = inhibition) at 10uM” value was found to be 1.14%.

For `CN1CCCN(Cc2ccccc2C(F)(F)F)CC1`, the “hERG current change (%, negative = inhibition) at 10uM” value worked out at 8.06%.

In the case of `N#Cc1c(N2CCCCC2)nc(N)c2c(N)nc3c(c12)CC(CCl)O3` (stereo not drawn), the “hERG current change (%, negative = inhibition) at 10uM” value is listed as -2.22%. The result for `Cc1ccc(S(=O)(=O)Nc2cccc3cccnc23)cc1` reads -12.1%; that for `COc1ccc(C(=O)Nc2ncc3c(n2)CC(C)CC3=O)cc1` (stereo not drawn), -24%. The result for `Cc1cccc2cc(CN(Cc3nnnn3Cc3ccccc3)C3CCCC3)c(=O)[nH]c12` reads -22.7%; that for `CC(C)(C)c1cc(C(=O)Nc2ccccc2)ccn1`, -1.77%. On to `Cc1ccc(NC(=O)CCCn2c(=O)oc3ccccc32)c(O)c1`, for which the “hERG current change (%, negative = inhibition) at 10uM” value is reported as -12.3%.

Turning to `COC/C=C/C1=CC2=CC(=O)C(C)(OC(=O)c3cnc4ccccc4n3)C(=O)C2=CN1Cc1ccc(OC)cc1` (stereo not drawn), the “hERG current change (%, negative = inhibition) at 10uM” value worked out at 0.29%. To `Cc1cccc(OCC(=O)N(Cc2cccs2)C2CCS(=O)(=O)C2)c1` (stereo not drawn) belongs -15.8%. To `Cc1ccc(S(=O)(=O)n2c([N+](=O)[O-])cnc2C)cc1C` belongs 18%; to `CS(=O)(=O)c1ccc2nc(NC(=O)CCN3C(=O)c4ccccc4C3=O)sc2c1`, 26.7%; to `CC(C)CC(C(=O)NC1CCCC1)N(Cc1cccs1)C(=O)c1snc(C(N)=O)c1N` (stereo not drawn), -40.5%. The result for `Cc1nc(SCC(=O)c2ccc(F)c(F)c2)[nH]c(=O)c1Oc1ccc(F)cc1` reads -16.1%; that for `CC(C(=O)Nc1ncc2c(n1)CC(C)(C)CC2=O)N1C(=O)c2ccccc2C1=O` (stereo not drawn), -19.4%; that for `O=C(NNC(=O)c1ccccc1Br)c1ccc(Cl)c(Cl)c1`, -6.54%. For `CCC12CN3CCN(CC(C3)/C1=N\NC(=O)c1ccc(Cl)cc1)C2`, the “hERG current change (%, negative = inhibition) at 10uM” value stood at 11.5%.

As to `Cc1ccc(O)c(NC(=O)c2cc3nc4c(c(C(F)(F)F)n3n2)CCc2ccccc2-4)c1`, the “hERG current change (%, negative = inhibition) at 10uM” value is recorded as -15.3%. To `O=C(CSc1nnc(-c2ccc(O)cc2)n1Cc1ccccc1)NNC(=O)c1ccc(Br)cc1` belongs -4.24%; to `COC(=O)c1ccc(COC(=O)c2ccc(S(=O)(=O)N3CCC(C)CC3)cc2)o1`, 5.04%; to `COc1ccc(CCN(CC(=O)NC2CCCC2)C(=O)CCC(=O)Nc2cc(C)on2)cc1OC`, 1.84%. To `CCN(CC)NC(=S)Nc1ccccc1` belongs 11.3%; to `COc1cc(C(F)(F)F)c(C(=O)N(C)c2ccc(Cl)cc2)cn1`, -2.38%; to `Cc1cc(C)n(CC(=O)NNC(=O)COc2ccc(Cl)cc2Cl)n1`, 3.06%.

With `COc1cc(OC)c2c(c1)C(=O)OC2`, the “hERG current change (%, negative = inhibition) at 10uM” value was -10.3%. The result for `COc1ccc(C)cc1NC(=O)CCCN1C(=S)NC(C)(C)CC1C` (stereo not drawn) reads 10.2%; that for `C=CCOc1cccc(C2/C(=C(\O)c3ccc(F)cc3)C(=O)C(=O)N2CCN(C)C)c1` (stereo not drawn), 4.14%.

Turning to `CC(=O)N1CCOc2cc(S(=O)(=O)N3CCN(c4ccccc4)CC3)c(Cl)cc21`, the “hERG current change (%, negative = inhibition) at 10uM” value is reported as -21.1%. To `CCc1c(C(=O)NNC(=S)NCCc2ccccc2)csc1C` belongs 3.19%; to `CC(C)(OC(=O)NC(=O)C(F)(F)F)C(C)(C)OC(=O)NC(=O)C(F)(F)F`, 31.4%; to `CCCc1nc2ccccc2c(C(=O)OCc2nnc(-c3cc(OC)c(OC)c(OC)c3)o2)c1CC`, 2.49%.

For `COC(=O)c1c(-c2ccncc2)csc1NC(=O)c1ccoc1C`, the “hERG current change (%, negative = inhibition) at 10uM” value is given as -9.35%. The result for `O=C(NCCc1ccccc1)C(=O)NCC1OCCN1S(=O)(=O)c1ccc2c(c1)OCCO2` (stereo not drawn) reads -8.42%; that for `Cn1c(=O)oc2cc(S(=O)(=O)N3CCC(C(=O)NCc4ccc(F)cc4)CC3)ccc21`, -8.93%. To `COc1ccc(-c2nc3ccccc3c(=O)n2NC(=O)Cc2ccccc2)cc1` belongs 5.92%; to `O=C(NCCc1c[nH]c2ccccc12)/C(=C\c1cccnc1)NC(=O)c1ccccc1Br`, -65.1%. Regarding `CC(=O)Nc1ccc(NC(=O)CN(c2ccc(C34CC5CC(CC(C5)C3)C4)cc2)S(C)(=O)=O)cc1`, the “hERG current change (%, negative = inhibition) at 10uM” value stood at 8.76%. The result for `Cc1cc(=O)oc2c(C)c(OCC(=O)NCCN3CCOCC3)ccc12` reads 10.5%; that for `COc1ccc(CCNC(=O)C/C(C)=N/NC(=O)C(c2ccccc2)c2ccccc2)cc1OC`, -27.5%. With `COC(=O)c1ccc(COc2cccc(OC)c2)o1`, the “hERG current change (%, negative = inhibition) at 10uM” value is listed as -4.8%. The result for `Cc1c(C(=O)N2CCCC2)oc2c1-c1nn(CC(=O)NCCCOC(C)C)cc1CC2` reads 10.6%; that for `COc1ccc(NC(=S)NNC(=O)C2CC2c2ccc(C)cc2)cc1` (stereo not drawn), 1.74%; that for `O=C(O)c1ccc(-n2nnnc2SCc2cccc(Br)c2)cc1`, 13.2%. The result for `O=C(Nc1ccon1)c1sc2ccccc2c1Cl` reads 15.9%; that for `CCOC(=O)c1ccc(NS(=O)(=O)c2ccc3oc(=O)[nH]c3c2)cc1`, 6.15%.

Take `COc1ccc(CCNC(=O)NCCc2c[nH]c3ccccc23)cc1OC`: the “hERG current change (%, negative = inhibition) at 10uM” value is recorded as -3.31%.

Regarding `NC1=Nc2ccccc2Oc2ccccc21`, the “hERG current change (%, negative = inhibition) at 10uM” value is reported as -21.9%.

In the case of `CCOC(=O)C(C)n1cnc2c(nnn2-c2cccc(Cl)c2)c1=O` (stereo not drawn), the “hERG current change (%, negative = inhibition) at 10uM” value is -26.3%. The result for `O=C(c1ccc(S(=O)(=O)Cc2cc(F)ccc2F)c([N+](=O)[O-])c1)N1CCCC1` reads -20.7%; that for `Cc1ccc(C23CC4CC(CC(NC(=O)NN)(C4)C2)C3)cc1`, 14.6%; that for `CCOC(=O)CSc1ccc(C(=O)N2CCN(C)CC2)cc1[N+](=O)[O-]`, 13%.

Take `CC(=O)NC(Cc1ccccc1)C(=O)N1CCN(C(=O)c2cccs2)CC1` (stereo not drawn): the “hERG current change (%, negative = inhibition) at 10uM” value worked out at 1.2%. The result for `COc1cccc(/C=C/C(=O)OCC(=O)c2ccc3c(c2)NC(=O)CO3)c1OC` reads -2.12%; that for `C[C@]12CCC(=O)C=C1CC[C@@H]1[C@@H]2CC[C@@]2(C)[C@H]1CC[C@]2(O)C(=O)CO`, 9.17%. The result for `CCc1nc(CNC(=O)C2CCC(=O)N(CCc3cccc(F)c3)C2)no1` (stereo not drawn) reads 9.82%. The result for `CCOc1nc(NCCO)nc(NCCC2=CCCCC2)n1` reads -12.9%. `CCOc1ccc(-c2n[nH]c(=S)n2Cc2ccccc2)cc1`: the “hERG current change (%, negative = inhibition) at 10uM” value is given as 15.2%. To `CCc1nc(N[C@@H](Cc2c[nH]c3ccccc23)C(=O)O)c2oc3ccccc3c2n1` belongs 8.39%; to `S=C(NCc1ccccc1)NC1CCCCC1`, 18.8%. To `O=C(COc1ccc(F)cc1)NNC(=O)c1cc2ccccc2oc1=O` belongs -10.3%; to `O=C1CCCc2nn(-c3ccccc3)nc21`, 11.3%; to `CCOc1ccc(S(=O)(=O)NCCC(=O)NCc2ccncc2)cc1`, -26.2%. The result for `Cc1cc(-c2n[nH]c(=S)n2-c2ccccc2C)cs1` reads 18.8%; that for `CCOc1cc(/C=N\Nc2nc(Nc3ccccc3)nc(N3CCOCC3)n2)ccc1OC(=O)c1ccco1`, -3.25%; that for `CCOc1ccc(NS(=O)(=O)c2ccc3[nH]c(=O)[nH]c3c2)cc1`, 27.4%.

In the case of `NC(=O)CC(NC(=O)c1ccccc1)c1ccc(N2CCC(N3CCCC3)CC2)c([N+](=O)[O-])c1` (stereo not drawn), the “hERG current change (%, negative = inhibition) at 10uM” value stood at 8.15%.

For the compound `N#CC1=C(N)C(C#N)(C#N)[C@H](c2ccncc2)[C@H]2CN(C(=O)OCc3ccccc3)CC=C12`, the “hERG current change (%, negative = inhibition) at 10uM” value is on record as -0.261%. With `CCOC(=O)c1c(C)[nH]c(C)c1C(=O)COC(=O)c1c(OC)cccc1OC`, the “hERG current change (%, negative = inhibition) at 10uM” value is recorded as 1.71%.

In the case of `O=C(/C=C/c1ccco1)N1CCC(Cc2ccccc2)CC1`, the “hERG current change (%, negative = inhibition) at 10uM” value worked out at 4.42%. In the case of `CCN1CCN(Cc2c(O)ccc3c2O/C(=C\c2ccc(C)cc2)C3=O)CC1`, the “hERG current change (%, negative = inhibition) at 10uM” value is reported as -35.7%. To `CC1(C)CC(=O)C(C=NCCN2CCOCC2)=C(O)C1` belongs 18.4%.
